# From paper PMC4336329 (PLoS ONE, 2015)
# About 14,000 (4.5%) of roughly 310,000 compounds showed an effect of 50% or more. Effects have a minus sign here. This is one part of the list.
# Target: human ether-à-go-go-related gene (hERG) potassium channel (human, UniProt Q12809)
# Assay: primary screen, population patch clamp on CHO cells stably expressing hERG
# 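Also: peak tail current of the secondary pulse compared with the same well before compound.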
# Sequence of human ether-à-go-go-related gene (hERG) potassium channel (Q12809 whole entry, looked up): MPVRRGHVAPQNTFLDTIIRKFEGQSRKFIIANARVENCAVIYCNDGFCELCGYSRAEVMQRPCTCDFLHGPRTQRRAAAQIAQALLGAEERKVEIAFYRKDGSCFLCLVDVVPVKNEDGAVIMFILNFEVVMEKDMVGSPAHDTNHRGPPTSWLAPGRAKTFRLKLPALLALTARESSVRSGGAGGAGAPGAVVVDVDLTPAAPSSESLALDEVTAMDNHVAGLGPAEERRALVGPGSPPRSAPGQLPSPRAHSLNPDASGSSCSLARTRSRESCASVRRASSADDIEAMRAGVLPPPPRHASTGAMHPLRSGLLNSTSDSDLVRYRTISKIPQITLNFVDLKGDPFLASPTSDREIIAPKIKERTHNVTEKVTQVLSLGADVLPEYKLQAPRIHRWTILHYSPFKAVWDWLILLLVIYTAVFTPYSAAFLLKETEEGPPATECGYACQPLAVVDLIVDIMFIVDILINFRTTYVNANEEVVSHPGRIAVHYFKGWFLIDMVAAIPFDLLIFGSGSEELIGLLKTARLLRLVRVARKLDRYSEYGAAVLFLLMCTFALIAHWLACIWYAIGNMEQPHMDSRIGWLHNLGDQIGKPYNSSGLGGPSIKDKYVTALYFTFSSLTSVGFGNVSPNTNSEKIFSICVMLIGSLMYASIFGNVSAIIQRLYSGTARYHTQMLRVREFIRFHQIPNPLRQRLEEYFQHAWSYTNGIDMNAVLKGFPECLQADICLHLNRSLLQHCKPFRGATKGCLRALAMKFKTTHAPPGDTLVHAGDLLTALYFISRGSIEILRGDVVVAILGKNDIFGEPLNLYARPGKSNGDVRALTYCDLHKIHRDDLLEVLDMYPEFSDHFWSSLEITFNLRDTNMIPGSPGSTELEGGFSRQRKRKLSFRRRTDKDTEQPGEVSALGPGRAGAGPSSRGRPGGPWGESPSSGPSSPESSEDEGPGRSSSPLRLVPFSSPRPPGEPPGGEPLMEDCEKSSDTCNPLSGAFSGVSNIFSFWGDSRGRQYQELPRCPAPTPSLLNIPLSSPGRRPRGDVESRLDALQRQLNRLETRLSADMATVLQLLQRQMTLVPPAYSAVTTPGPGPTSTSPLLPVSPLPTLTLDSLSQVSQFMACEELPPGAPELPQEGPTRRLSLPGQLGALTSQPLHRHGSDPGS
row,SMILES,"hERG current change (%, negative = inhibition) at 10uM"
1,Cn1cnc(S(=O)(=O)N2CCN(c3ccc(Cl)cc3)CC2)c1,-14.3%
2,Cl.Fc1ccc(-c2csc(Nc3ccccn3)n2)c(F)c1,20.3%
3,Cn1ncc2c(Sc3ccc(Cl)cc3)ncnc21,22.7%
4,COc1ccc(NS(=O)(=O)c2csc(C(=O)N3CCCC3)c2)cc1,-6.41%
5,CC(Sc1nnc(-c2ccco2)n1C)C(=O)N1C(C)CCCC1C (stereo not drawn),-1.93%
6,COC(=O)C1=C(C)OC(N)=C(C#N)C1c1cc(OC)c(OCC(N)=O)cc1Cl (stereo not drawn),-10%
7,O=C(NCC1(N2CCOCC2)CCCCC1)c1ccc(S(=O)(=O)Nc2ccccc2F)cc1,-13.5%
8,Clc1ccc(SCc2cc(-c3ccc(Cl)cc3)on2)cc1,11.9%
9,Cc1c(C(=O)OCC(=O)N2CCCC(C)C2)oc2ccccc12 (stereo not drawn),-2.52%
10,CC1CCN(c2ccccc2NC(=S)NC(=O)C(C)(C)C)CC1,14.5%
11,Cc1ccc(NC(=O)COC(=O)c2ccccc2-c2nc3ccccc3s2)c(C)c1,35.3%
12,O=C(OCC(=O)N1CCc2ccccc21)[C@@H]1CCCN1S(=O)(=O)c1ccccc1F,-10.6%
13,CC(C)CCNC(=O)CN(Cc1ccccc1)C(=O)CCC(=O)Nc1nccs1,-13.4%
14,COc1cc(OC)c(NC(=O)CN(C)S(=O)(=O)c2ccc3[nH]c(=O)oc3c2)cc1Cl,3.44%
15,CC1CCCC(C)N1CCCNC(=O)C(=O)Nc1ccc2nc3n(c(=O)c2c1)CCCCC3 (stereo not drawn),16.8%
16,O=C(N/C(=C/c1cccc([N+](=O)[O-])c1)C(=O)N1CCOCC1)c1ccc(Br)cc1,-46.6%
17,O=C(NC(C(=O)c1ccccc1)n1c(=O)cc[nH]c1=S)c1ccccc1 (stereo not drawn),-6.96%
18,CCOC(=O)c1ccc(N2C(=O)c3n[nH]c(C)c3C2c2ccco2)cc1 (stereo not drawn),-5.29%
19,CCC(C)N1C(=O)CCC1C(=O)N1CCN(c2ccccc2F)CC1 (stereo not drawn),15.2%
20,O=c1[nH]nc(Cc2ccccn2)c2ccccc12,-8.08%
21,COc1cc(CN=Cc2c(O)n(C(C)(C)C)c(=O)[nH]c2=O)cc(OC)c1,6.84%
22,CCC(=O)Nc1ccc(/C(C)=N/NC(=O)c2c(Br)c(C)nn2C)cc1,5.35%
23,CCN(Cc1nc(-c2ccccc2)no1)C(=O)c1ccoc1C,23.8%
24,CC1CC(NC2=NCCS2)CC(C)(C)C1 (stereo not drawn),-2.81%
